In paper PMC9911399, “Two distinct binding modes provide the RNA-binding protein RbFox with extraordinary sequence specificity”:
Residue numbers refer to the chain shown, from its start. The list shows a part of the results.

T1: RBFOX1 RRM RbFoxmut (Fox-RRM*) (Homo sapiens, UniProt Q9NWB1 109-208, R118D;E147R;N151S;E152T)
T1 sequence: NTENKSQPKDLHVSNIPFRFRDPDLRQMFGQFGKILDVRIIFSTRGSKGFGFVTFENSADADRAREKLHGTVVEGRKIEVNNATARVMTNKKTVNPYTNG

B1: UGCCUCU (DNA:RNA)
RNA: GGGAGACCGGAAUUCAGAUUGUCCUGCCUCUUUAAAUCCCGUCGUAGCCACCA
DNA 1: CAATCTGAATTCCGGTCTCCC
DNA 2: TGGTGGCTACGACGGGATT
B2: ACCGAAA (DNA:RNA)
RNA: B1 RNA with U25A, G26C, C28G, U29A, C30A, U31A
DNA 1: CAATCTGAATTCCGGTCTCCC
DNA 2: TGGTGGCTACGACGGGATT
B3: UCUGGAC (DNA:RNA)
RNA: B1 RNA with G26C, C27U, C28G, U29G, C30A, U31C
DNA 1: CAATCTGAATTCCGGTCTCCC
DNA 2: TGGTGGCTACGACGGGATT
B4: ACCAACC (DNA:RNA)
RNA: B1 RNA with U25A, G26C, C28A, U29A, U31C
DNA 1: CAATCTGAATTCCGGTCTCCC
DNA 2: TGGTGGCTACGACGGGATT
B5: CUAGAGC (DNA:RNA)
RNA: GGGAGACCGGAAUUCAGAUUGUCCCUAGAGCUUAAAUCCCGUCGUAGCCACCA
DNA 1: CAATCTGAATTCCGGTCTCCC
DNA 2: TGGTGGCTACGACGGGATT
B6: AGUCAGC (DNA:RNA)
RNA: B5 RNA with C25A, U26G, A27U, G28C
DNA 1: CAATCTGAATTCCGGTCTCCC
DNA 2: TGGTGGCTACGACGGGATT
B7: ACCCACA (DNA:RNA)
RNA: B1 RNA with U25A, G26C, U29A, U31A
DNA 1: CAATCTGAATTCCGGTCTCCC
DNA 2: TGGTGGCTACGACGGGATT
B8: AACACAU (DNA:RNA)
RNA: B1 RNA with U25A, G26A, C28A, U29C, C30A
DNA 1: CAATCTGAATTCCGGTCTCCC
DNA 2: TGGTGGCTACGACGGGATT
B9: UCUGAGC (DNA:RNA)
RNA: B5 RNA with C25U, U26C, A27U
DNA 1: CAATCTGAATTCCGGTCTCCC
DNA 2: TGGTGGCTACGACGGGATT
B10: GCAGCCC (DNA:RNA)
RNA: B5 RNA with C25G, U26C, A29C, G30C
DNA 1: CAATCTGAATTCCGGTCTCCC
DNA 2: TGGTGGCTACGACGGGATT
B11: GACGCAA (DNA:RNA)
RNA: B5 RNA with C25G, U26A, A27C, A29C, G30A, C31A
DNA 1: CAATCTGAATTCCGGTCTCCC
DNA 2: TGGTGGCTACGACGGGATT
B12: ACUGCGA (DNA:RNA)
RNA: B5 RNA with C25A, U26C, A27U, A29C, C31A
DNA 1: CAATCTGAATTCCGGTCTCCC
DNA 2: TGGTGGCTACGACGGGATT
B13: AUGCGUU (DNA:RNA)
RNA: B1 RNA with U25A, G26U, C27G, U29G, C30U
DNA 1: CAATCTGAATTCCGGTCTCCC
DNA 2: TGGTGGCTACGACGGGATT
B14: UGACGUG (DNA:RNA)
RNA: B1 RNA with C27A, U29G, C30U, U31G
DNA 1: CAATCTGAATTCCGGTCTCCC
DNA 2: TGGTGGCTACGACGGGATT
B15: UAGUCGU (DNA:RNA)
RNA: B1 RNA with G26A, C27G, C28U, U29C, C30G
DNA 1: CAATCTGAATTCCGGTCTCCC
DNA 2: TGGTGGCTACGACGGGATT
B16: CGAGCUG (DNA:RNA)
RNA: B5 RNA with U26G, A29C, G30U, C31G
DNA 1: CAATCTGAATTCCGGTCTCCC
DNA 2: TGGTGGCTACGACGGGATT
B17: GGCGUCU (DNA:RNA)
RNA: B1 RNA with U25G, C28G
DNA 1: CAATCTGAATTCCGGTCTCCC
DNA 2: TGGTGGCTACGACGGGATT
B18: ACGGAGC (DNA:RNA)
RNA: B5 RNA with C25A, U26C, A27G
DNA 1: CAATCTGAATTCCGGTCTCCC
DNA 2: TGGTGGCTACGACGGGATT
B19: GACGGUG (DNA:RNA)
RNA: B5 RNA with C25G, U26A, A27C, A29G, G30U, C31G
DNA 1: CAATCTGAATTCCGGTCTCCC
DNA 2: TGGTGGCTACGACGGGATT
B20: CGCCCUA (DNA:RNA)
RNA: B1 RNA with U25C, U29C, C30U, U31A
DNA 1: CAATCTGAATTCCGGTCTCCC
DNA 2: TGGTGGCTACGACGGGATT
B21: AGGUCCG (DNA:RNA)
RNA: B1 RNA with U25A, C27G, C28U, U29C, U31G
DNA 1: CAATCTGAATTCCGGTCTCCC
DNA 2: TGGTGGCTACGACGGGATT
B22: CCAAGGC (DNA:RNA)
RNA: B5 RNA with U26C, G28A, A29G
DNA 1: CAATCTGAATTCCGGTCTCCC
DNA 2: TGGTGGCTACGACGGGATT
B23: CUGGAGU (DNA:RNA)
RNA: B5 RNA with A27G, C31U
DNA 1: CAATCTGAATTCCGGTCTCCC
DNA 2: TGGTGGCTACGACGGGATT
B24: GAACAAG (DNA:RNA)
RNA: B5 RNA with C25G, U26A, G28C, G30A, C31G
DNA 1: CAATCTGAATTCCGGTCTCCC
DNA 2: TGGTGGCTACGACGGGATT
B25: CUCAGGU (DNA:RNA)
RNA: B5 RNA with A27C, G28A, A29G, C31U
DNA 1: CAATCTGAATTCCGGTCTCCC
DNA 2: TGGTGGCTACGACGGGATT
B26: AGGUGAU (DNA:RNA)
RNA: B1 RNA with U25A, C27G, C28U, U29G, C30A
DNA 1: CAATCTGAATTCCGGTCTCCC
DNA 2: TGGTGGCTACGACGGGATT
B27: UUUUGUU (DNA:RNA)
RNA: B1 RNA with G26U, C27U, C28U, U29G, C30U
DNA 1: CAATCTGAATTCCGGTCTCCC
DNA 2: TGGTGGCTACGACGGGATT
B28: CGCUGCC (DNA:RNA)
RNA: B1 RNA with U25C, C28U, U29G, U31C
DNA 1: CAATCTGAATTCCGGTCTCCC
DNA 2: TGGTGGCTACGACGGGATT
B29: GUCCCGC (DNA:RNA)
RNA: B5 RNA with C25G, A27C, G28C, A29C
DNA 1: CAATCTGAATTCCGGTCTCCC
DNA 2: TGGTGGCTACGACGGGATT
B30: CGUUCGU (DNA:RNA)
RNA: B5 RNA with U26G, A27U, G28U, A29C, C31U
DNA 1: CAATCTGAATTCCGGTCTCCC
DNA 2: TGGTGGCTACGACGGGATT
B31: CUGCAAU (DNA:RNA)
RNA: B5 RNA with A27G, G28C, G30A, C31U
DNA 1: CAATCTGAATTCCGGTCTCCC
DNA 2: TGGTGGCTACGACGGGATT

The binders below were run against T1, RBFOX1 RRM RbFoxmut (Fox-RRM*) (assay: EMSA; HiTS-Eq, 1 nM pool, 10 min; buffer printed only for the single-RNA assays: 10 mM Tris pH 7.5, 150 mM NaCl, 3.4 mM EDTA, 0.001% NP-40, 30 C). Settings: tags: His6 N-terminal (pET28a); label: 5' 32P.
Outline: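 Relative association constants, normalised to the cognate motif, were derived by comparing read counts of each RNA species with those of the control reaction. The RNA sequenced was the free fraction, separated by 8% native PAGE after a 10 min equilibration in 50 µL of 1 nM 5′-radiolabelled RNA (7 randomized nucleotides) with increasing concentrations of purified wild-type or mutant RbFox RRM.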
In the case of B1, the binding signal is reported as 0.0664 KA relative to UGCAUGU.
With B2 the binding signal was 0.0941 KA relative to UGCAUGU.
B3 was tested, and the binding signal was 0.0502 KA relative to UGCAUGU.
In the case of B4, the binding signal is reported as 0.0562 KA relative to UGCAUGU.
With B5 the binding signal was 0.072 KA relative to UGCAUGU.
For B6, the binding signal was 0.0738 KA relative to UGCAUGU.
With B7 the binding signal was 0.135 KA relative to UGCAUGU.
In the case of B8, the binding signal is reported as 0.0837 KA relative to UGCAUGU.
B9 was tested, and the binding signal was 0.0986 KA relative to UGCAUGU.
With B10 the binding signal was 0.0521 KA relative to UGCAUGU.
For B11, the binding signal was 0.0676 KA relative to UGCAUGU.
B12 was tested, and the binding signal was 0.0809 KA relative to UGCAUGU.
B13 was tested, and the binding signal was 0.149 KA relative to UGCAUGU.
With B14 the binding signal was 0.161 KA relative to UGCAUGU.
In the case of B15, the binding signal is reported as 0.119 KA relative to UGCAUGU.
In the case of B16, the binding signal is reported as 0.0958 KA relative to UGCAUGU.
For B17, the binding signal was 0.122 KA relative to UGCAUGU.
In the case of B18, the binding signal is reported as 0.0985 KA relative to UGCAUGU.
For B19, the binding signal was 0.09 KA relative to UGCAUGU.
In the case of B20, the binding signal is reported as 0.0877 KA relative to UGCAUGU.
For B21, the binding signal was 0.166 KA relative to UGCAUGU.
In the case of B22, the binding signal is reported as 0.0778 KA relative to UGCAUGU.
With B23 the binding signal was 0.124 KA relative to UGCAUGU.
With B24 the binding signal was 0.0937 KA relative to UGCAUGU.
For B25, the binding signal was 0.118 KA relative to UGCAUGU.
With B26 the binding signal was 0.0684 KA relative to UGCAUGU.
B27 was tested, and the binding signal was 0.107 KA relative to UGCAUGU.
B28 was tested, and the binding signal was 0.324 KA relative to UGCAUGU.
For B29, the binding signal was 0.0784 KA relative to UGCAUGU.
With B30 the binding signal was 0.15 KA relative to UGCAUGU.
B31 was tested, and the binding signal was 0.0574 KA relative to UGCAUGU.
